This test has as its system NCI-H322M lung. Put plainly: NCI-60 cell line screen, 48 h.

Values joined by “and” are separate entries in the source; they are usually repeats but may differ in a detail not shown here. Equal entries are not always repeated.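 Interpolation was linear, between the two tested concentrations surrounding the appropriate level; five concentrations were tested over 48 hours in 96-well plates. Here, GI50 denotes the concentration required for 50% inhibition of growth. TGI denotes the concentration required for complete inhibition of growth.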

In the case of `O=C(/C(=C/c1ccc([N+](=O)[O-])cc1)SCc1ccc(F)cc1)c1ccc(Cl)cc1`, the GI50 was more than 100 µM and the TGI was more than 100 µM.

Regarding `C/C(=C\COc1c2c(cc3c1CCO3)OC1(C=C2)OC(CC/C(C)=C/COc2c3ccoc3cc3oc(=O)ccc23)C(C)(C)O1)CCC(O)C(C)(C)O` (stereo not given), the GI50 is more than 100 µM and the TGI is more than 100 µM.

Consider `COC(=O)/C=C(/OC)[C@H](C)[C@H](/C=C/c1csc(-c2csc(C(C)C)n2)n1)OC`, for which the TGI was more than 100 µM.

`CC(=O)C1(N=Nc2ccc(S(N)(=O)=O)cc2)CCOC1=O` (stereo not given) returned a TGI of more than 100 µM.

`CC(=O)c1cccc(NC(=O)C(=O)Nn2c(N)nnc2N)c1` yielded a TGI of more than 100 µM.

As for `CCCC(=O)O.CCCC(=O)O.CCCC(=O)O.CCCC(=O)O.[Rh].[Rh]`, the GI50 was 0.807 µM and the TGI was found to be 2.52 µM.

In the case of `O=C(NCc1ccco1)c1ccc(NC2=C(Cl)C(=O)N(Cc3ccccc3)C2=O)cc1`, the GI50 was 20.4 µM and the TGI came out at 46.9 µM.

As to `COc1ccc(-c2cc(-c3ccc(O)cc3)nc3n[nH]c(N)c23)cc1`, the GI50 was 24.3 µM and the TGI was more than 100 µM.

Consider `CC(=O)Oc1cc2c(OC(C)=O)c(-c3c(C)cc4c(C(C)C)c(OC(C)=O)c(OC(C)=O)cc4c3OC(C)=O)c(C)cc2c(C(C)C)c1OC(C)=O`, for which the GI50 was 6.23 µM and 6.88 µM and 10.4 µM; the TGI is 16.5 µM and 22.5 µM and 32.8 µM.

Regarding `C[C@H]1[C@H]2[C@H]3CC[C@@H]4[C@@]5(C)C/C(=C/c6cccnc6)C(=O)C(C)(C)[C@@H]5CC[C@@]4(C)[C@]3(C)CC[C@]23CO[C@]1(C)[C@@H](C(=O)/C=C\c1cccnc1)C3`, the GI50 is 2.12 µM and the TGI was 8.84 µM.

On to `C=CN(C)S(C)(=O)=O`, for which the GI50 is more than 100 µM and the TGI was more than 100 µM.

On to `CCOC(=O)c1ccc(Nc2nc3ccccc3nc2C(=O)OCC)cc1`, for which the TGI is more than 100 µM.

Consider `CC[C@@]1(O)C(=O)OCc2c1cc1n(c2=O)Cc2c-1nc1cc3c(cc1c2C)OCO3`, for which the GI50 is 0.00151 µM and the TGI is 29.7 µM.

In turn, `c1ccc(C[N+]23CN4CN(CN(C4)C2)C3)cc1` returned a TGI of more than 100 µM.

In the case of `COc1ccc(-c2nc(N3CCN(C(=O)C4CCCCC4)CC3)c3c4c(sc3n2)CCCC4)cc1`, the GI50 is more than 100 µM and the TGI was more than 100 µM.

Values taken from PubChem BioAssay (NCI).
